# Test results taken from publication PMC12249101.
# The chains behind the UniProt entries cited, without tags or fusion partners. Where a name states a change or a piece, a line headed by the entry shows the natural chain unless it says otherwise.
# UniProt Q8NHY2: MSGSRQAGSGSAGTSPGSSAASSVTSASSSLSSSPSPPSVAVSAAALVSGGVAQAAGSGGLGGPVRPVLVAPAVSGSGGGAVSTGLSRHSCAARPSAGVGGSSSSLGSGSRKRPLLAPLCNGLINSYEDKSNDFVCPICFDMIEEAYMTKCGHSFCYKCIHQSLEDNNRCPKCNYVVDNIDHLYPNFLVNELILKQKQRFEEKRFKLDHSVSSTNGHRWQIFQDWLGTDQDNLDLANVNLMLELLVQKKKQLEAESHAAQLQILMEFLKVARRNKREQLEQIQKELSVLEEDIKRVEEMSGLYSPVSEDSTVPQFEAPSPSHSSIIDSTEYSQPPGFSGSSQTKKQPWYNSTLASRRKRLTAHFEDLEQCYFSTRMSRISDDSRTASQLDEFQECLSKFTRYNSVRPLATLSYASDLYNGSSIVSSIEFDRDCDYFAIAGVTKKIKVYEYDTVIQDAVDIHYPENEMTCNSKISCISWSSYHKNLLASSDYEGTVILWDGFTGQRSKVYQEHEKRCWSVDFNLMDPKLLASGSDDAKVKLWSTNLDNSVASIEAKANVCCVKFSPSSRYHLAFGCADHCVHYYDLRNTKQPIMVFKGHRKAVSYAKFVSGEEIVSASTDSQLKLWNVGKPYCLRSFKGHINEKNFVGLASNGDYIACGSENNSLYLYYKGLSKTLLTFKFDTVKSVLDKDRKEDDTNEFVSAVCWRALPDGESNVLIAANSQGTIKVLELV
# UniProt P41161: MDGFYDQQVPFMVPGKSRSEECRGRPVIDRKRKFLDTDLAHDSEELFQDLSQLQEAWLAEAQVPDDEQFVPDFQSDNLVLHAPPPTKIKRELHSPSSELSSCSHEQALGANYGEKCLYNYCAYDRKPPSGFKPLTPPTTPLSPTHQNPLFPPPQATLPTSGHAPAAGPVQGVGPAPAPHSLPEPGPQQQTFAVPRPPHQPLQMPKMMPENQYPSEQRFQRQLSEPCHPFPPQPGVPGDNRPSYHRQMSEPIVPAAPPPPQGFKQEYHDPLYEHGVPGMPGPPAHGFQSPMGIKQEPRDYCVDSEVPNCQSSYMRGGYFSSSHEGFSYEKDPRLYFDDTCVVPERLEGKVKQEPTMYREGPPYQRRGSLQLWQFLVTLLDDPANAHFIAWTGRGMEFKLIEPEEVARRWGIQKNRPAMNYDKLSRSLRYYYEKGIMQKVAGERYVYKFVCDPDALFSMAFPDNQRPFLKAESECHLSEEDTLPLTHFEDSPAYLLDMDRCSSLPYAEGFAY
# Results are given in words; binding and its absence hold for the method and conditions named. Binding seen in cells or lysates may run through a third protein. Some entries that bind do so weakly or less than the wild type.
# Assays:
# [1] = target: COP1^(E511K, K539E) (human) (UniProt Q8NHY2); assay: co-IP; ETV5 coimmunoprecipitated with COP1 mutants (Figure S2H); cells and antibody not stated
# [2] = target: COP1^(E511K, E513K, K539E) (human) (UniProt Q8NHY2); assay: as above
# [3] = target: COP1^K472E (human) (UniProt Q8NHY2); assay: co-IP; Western blots of transfected 293T cells (Figure 2G); WT and mutant genes overexpressed from a PRK5-based vector, Lipofectamine; which protein was precipitated not given
# [4] = target: COP1 wild type, overexpressed in 293T cells (human) (UniProt Q8NHY2); assay: as above
# [5] = target: COP1 (Constitutive Photomorphogenic 1), wild type, endogenous in A375 cells (human (endogenous in A375)) (UniProt Q8NHY2); assay: co-IP; COP1 immunoprecipitated from lysates of WT or COP1^K539E A375 cells with anti-COP1 antibody (28A4, Genentech) and magnetic protein A/G beads; immunoprecipitates blotted against ETV5; lysis in 50 mM HEPES pH 7.2, 120 mM NaCl, 1 mM EDTA, 0.1% NP-40
# [6] = target: COP1^K539E, expressed from the edited endogenous COP1 locus of A375 cells (human (endogenous in A375)) (UniProt Q8NHY2); assay: as above
binding [1],binding [2],binding [3],binding [4],binding [5],binding [6],Substance
binds weakly,binds,no binding,binds,–,–,ETV5 in transfected 293T cells (from UniProt P41161 1-510)
–,–,–,–,binds,no binding,"ETV5, endogenous in A375 cells (from UniProt P41161 1-510)"
